Test results from PMC4336329 (PLoS ONE, 2015).
About 2,200 (0.71%) of roughly 310,000 compounds showed an effect of 50% or more. The effect is printed as a negative number. This is one part of the list.

These compounds were tested against human ether-à-go-go-related gene (hERG) potassium channel (human, UniProt Q12809) (assay: primary screen, population patch clamp on CHO cells stably expressing hERG).
Chain of human ether-à-go-go-related gene (hERG) potassium channel (Q12809 whole entry, looked up): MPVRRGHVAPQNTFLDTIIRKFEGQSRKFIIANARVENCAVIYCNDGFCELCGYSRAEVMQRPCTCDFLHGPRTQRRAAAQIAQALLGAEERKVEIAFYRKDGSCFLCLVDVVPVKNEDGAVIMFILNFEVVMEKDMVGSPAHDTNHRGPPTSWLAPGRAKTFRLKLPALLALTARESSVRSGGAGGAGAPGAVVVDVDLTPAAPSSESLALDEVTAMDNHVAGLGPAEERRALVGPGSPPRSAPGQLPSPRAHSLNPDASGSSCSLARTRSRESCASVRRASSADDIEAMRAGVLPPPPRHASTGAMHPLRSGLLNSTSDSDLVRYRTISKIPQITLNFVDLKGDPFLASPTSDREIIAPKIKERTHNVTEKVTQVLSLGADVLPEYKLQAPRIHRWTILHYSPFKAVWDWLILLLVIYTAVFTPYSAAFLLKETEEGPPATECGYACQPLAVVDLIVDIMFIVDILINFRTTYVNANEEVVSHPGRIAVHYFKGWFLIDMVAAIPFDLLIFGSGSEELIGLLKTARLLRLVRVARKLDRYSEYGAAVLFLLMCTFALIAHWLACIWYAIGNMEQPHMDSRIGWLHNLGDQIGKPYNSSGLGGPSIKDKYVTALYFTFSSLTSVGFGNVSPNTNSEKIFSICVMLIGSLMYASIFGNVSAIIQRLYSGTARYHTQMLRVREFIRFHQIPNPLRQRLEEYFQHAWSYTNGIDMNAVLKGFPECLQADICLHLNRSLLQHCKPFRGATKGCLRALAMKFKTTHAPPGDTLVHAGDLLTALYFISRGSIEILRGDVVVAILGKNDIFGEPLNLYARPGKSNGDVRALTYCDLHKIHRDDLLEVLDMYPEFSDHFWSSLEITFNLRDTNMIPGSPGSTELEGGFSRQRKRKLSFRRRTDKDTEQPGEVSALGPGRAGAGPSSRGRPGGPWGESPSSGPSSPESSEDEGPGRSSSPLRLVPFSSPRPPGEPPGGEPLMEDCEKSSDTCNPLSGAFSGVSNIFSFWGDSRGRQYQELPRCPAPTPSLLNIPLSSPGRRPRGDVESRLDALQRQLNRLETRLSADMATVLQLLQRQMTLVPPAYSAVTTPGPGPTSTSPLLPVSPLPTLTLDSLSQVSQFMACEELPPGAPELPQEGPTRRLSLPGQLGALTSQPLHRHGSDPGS

SMILES | hERG current change (%, negative = inhibition) at 1uM
N#Cc1ccccc1NC(=O)CN(Cc1ccccc1)Cc1ccccc1 | 13.9%
Cl.N=c1c2c(n(Cc3ccc(Cl)c(Cl)c3)c3c1CCC3)CCCC2 | 8.36%
CCN(CC)C(=O)CSc1nnc(-c2ccco2)n1N | -0.55%
COc1ccc(C(=O)NCCc2nnc3ccc(SCC(=O)NCc4ccccc4)nn23)cc1 | 16.7%
Cc1cc(C)cc(NC(=O)CSc2nnc(CN3CCOCC3)n2C)c1 | 2.84%
CSCCC(NC(=O)c1ccccc1Br)C(=O)NCc1ccc(F)cc1 (centres unmarked) | 2.12%
CCCn1c(=O)c(C(=O)NNC(=O)Cc2ccccc2)c(O)c2ccccc21 | 7.79%
COc1ccc2[nH]cc(C(=O)CN3CCCC(C)C3)c2c1 (centres unmarked) | 1.08%
CC(O)CN(CCC(N)=O)CCC(N)=O.O=C(O)C(=O)O (centres unmarked) | 15.6%
COc1ccccc1N1CCN(Cc2ccc(Br)s2)CC1 | 4.25%
Cc1ccc(OC(=O)c2ccccc2P(=O)(O)O)cc1 | 7.83%
Cc1cc(S(=O)(=O)Nc2c(C)nc3nc[nH]n3c2=O)ccc1F | 13.4%
O=C(CNC(=O)c1ccccc1)N/N=C/c1ccc([N+](=O)[O-])o1 | 5.33%
Cc1ccc2[nH]c(CN3CCC(CO)(CC4CCCCO4)CC3)c(C)c2c1 (centres unmarked) | -4.62%
COc1ccc2o/c(=N/NC(=O)c3cccs3)c(C(N)=O)cc2c1 | -8.36%
CCOc1ccc(N2C(=O)NC(=O)/C(=C\c3ccccc3[N+](=O)[O-])C2=O)cc1 | 10.1%
COc1cccc(CNC(=O)CCC2CCCN(C(=O)CCC(F)(F)F)C2)c1 (centres unmarked) | 4.96%
CC(C)=NNc1nc2c(c(=O)n(C)c(=O)n2C)n1C | 0.723%
CCC(=O)Oc1ccc2c(C)cc(=O)oc2c1C(=O)CC | 14.6%

SMILES | hERG current change (%, negative = inhibition) at 1uM
NC(=O)c1cc([N+](=O)[O-])ccc1NCc1cccc2ccccc12 | 13.7%
Cc1cc(NC(=O)c2cccc([N+](=O)[O-])c2)n(-c2ccccc2)n1 | 7.59%
O=C(O)CCN1C(=O)/C(=C\c2ccc(OCc3ccccc3)c(OCc3ccccc3)c2)SC1=S | 14.6%
O=C(c1ccco1)c1cn(CC(=O)N2CCCc3ccccc32)c2ccccc12 | -1.79%
Cc1nc(SCC(O)CO)c([N+](=O)[O-])[nH]1 (centres unmarked) | 7.86%
Cc1cc(NC(=O)C(C)Oc2ccc(Cl)cc2Cl)n(-c2ccccc2)n1 (centres unmarked) | 8.48%
Cc1ccc(N)c(C)c1 | 2.92%
CN1C(=O)C2(C(C#N)=C(N)N(c3cc(Cl)cc(Cl)c3)C3=C2C(=O)CC(C)(C)C3)c2ccccc21 (centres unmarked) | -8.25%
Cc1cccc(/C=C2\Sc3ccc(C(=O)N4CCC(C(N)=O)CC4)cc3N(C)C2=O)c1 | 5.47%
CCCNc1cc(C)oc(=O)c1C(=O)CCC | 7.87%
O=C(Nc1cc(Cl)ccc1Cl)c1ccco1 | 13.4%
CCCC(=O)n1nc(-c2cccnc2)nc1N | -18.9%
O=C1c2ccccc2C(=O)N1Cc1cc(Cl)c(O)c([N+](=O)[O-])c1 | 15.3%
O=c1[nH]c(SCc2ccccc2F)nc2ccccc12 | 7.82%
COc1ccc(OCC(O)CN2C(=O)NC(C)(C)C2=O)cc1 (centres unmarked) | 15.8%
O=C(NOCc1ccccc1)c1ccccc1 | 13.1%
Cc1cc2cc(CNC(=O)c3ccco3)ccc2n1C | -6.68%
COc1cc(S(=O)(=O)Nc2ccccc2N2CCCCC2)ccc1NC(C)=O | -4.5%
COc1cc(OC)c(OC)cc1CN1CCN(S(=O)(=O)c2ccc(F)cc2)CC1.O=C(O)C(=O)O | 8.58%

SMILES | hERG current change (%, negative = inhibition) at 1uM
Cc1[nH]c2ccccc2c1C(=O)COC(=O)C1CCC(=O)N1 (centres unmarked) | 10.5%
CC(=O)Nc1ccc(NC(=O)COc2ccc(Br)cc2C)cc1 | 5.46%
C=C(C=O)CC1CC(O)[C@]2(C)OC3CC4OC5C[C@]6(C)O[C@]7(C)CCC8OC9C[C@]%10(C)OC%11C(C)=CC(=O)OC%11CC%10OC9C[C@@H](C)C8OC7CC6O[C@]5(C)CC5OC5C4OC3CC2O1 (some centres unmarked) | -8.24%
CNC(=O)CSc1nnc(-c2ccco2)n1-c1ccccc1 | 11.3%
CCc1nnc(NC(=O)CSc2nnc(COc3ccccc3)n2-c2ccc(C)cc2)s1 | -8.98%
N=C(N)c1ccccc1 | -34.8%
COc1ccc(CN(C)CC(=O)Nc2cc3oc4ccccc4c3cc2OC)c(OC)c1 | 8.41%
C[C@@H](C(=O)N[C@@H](Cc1c[nH]c2ccccc12)C(=O)O)n1nnc2ccccc2c1=O | 23.7%
CC(C)Oc1ccc(C(=O)Nc2ccc3c(c2)n(C)c(=O)n3C)cc1 | 6.41%
O=C(Nc1sc2c(c1C(=O)O)CCCCC2)c1ccccc1 | 22%
Cc1ccc(S(=O)(=O)NC2=NCN(CC(=O)[O-])CN2)cc1.[Na+] | -2.9%
CCOC(=O)c1sc(=S)n(C)c1NC(=O)c1ccc(OC)cc1 | 10.9%
O=C(O)c1cccc(Oc2ncnc3sc4c(c23)CCCC4)c1 | 8.99%
Cc1coc2cc3oc(=O)c4c(c3cc12)CCCC4 | 8.03%
CC(NC(=O)/C(C#N)=C/c1ccc(Cl)c([N+](=O)[O-])c1)c1ccccc1 (centres unmarked) | 2.72%
CCC(=O)Nc1ccc2c(c1)OCCO2 | -2.64%
Cc1cc(SCC(=O)c2ccccc2)nc(=O)[nH]1 | 13.1%
Cc1ccc(N2C(=O)NC(NC(=O)c3ccc(Cl)cc3)(C(F)(F)F)C2=O)cc1 (centres unmarked) | 7.28%
